In PubChem BioAssay AID588855 (National Center for Advancing Translational Sciences (NCATS), 2011):
“And” between values parts separate entries of the source, which are not always exact repeats. Equal values may be shown once. The campaign covered roughly 410,000 compounds. About 5,000 (1.2%) were called active. The shares of active, inactive and inconclusive entries below differ from those in the screen. The call rests on the fitted dose curve; in most records, active means well fitted inhibition curve with a large enough effect; inconclusive means small, poorly fitted or top-dose-only effect; inactive means no such curve, though single readings can be large or run the other way. Potencies beside an inconclusive call are fits to weak or partial responses and may not hold up.

experiment: qHTS for Inhibitors of TGF-b; settings: HepG2 CAGA-GFP TGF-b/SMAD3 reporter, GFP fluorescence, 18 h, TGF-beta stimulated, 500 pg/mL final; series mostly up to 46.1 µM; further: nearly all actives have a fitted effect of over 65% in size
Procedure, shortened: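 Inhibition of TGF-beta-driven CAGA-GFP reporter expression in HEPG2 cells is measured by cellular GFP fluorescence after 18 h stimulation with 500 pg/mL recombinant TGF-beta in 1% FBS medium at 37 degrees C.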
Potency means the concentration at half of the fitted maximal effect; tags describe the fitted curve by direction and shape.

Row | Structure (SMILES) | Potency
1 | Cc1ccc(C)c(N2CCN(C(=O)CCCCCn3c(=S)[nH]c4ccc(N5CCOCC5)cc4c3=O)CC2)c1 | inconclusive: 10 µM [inhibitor, partial curve, poor fit]
2 | NC(c1csc(Nc2ncccn2)n1)c1ccccc1Cl (stereo not given) | inconclusive: 25.1 µM [inhibitor, single point]
3 | Cn1cc(S(=O)(=O)N2CCCCC2)cc1C(=O)N1CCN(c2ccc(F)cc2)CC1 | inconclusive: 0.631 µM [inhibitor, full curve, poor fit]
4 | COc1ccc(C2/C=C\CN(C(=O)C3CCCC3)[C@H](Cc3ccccc3)C(=O)N2Cc2ccc(F)cc2)cc1 (stereo not given in full) | inconclusive: 14.1 µM [inhibitor, single point]
5 | CN(CC(=O)Nc1cccc(F)c1)C(=O)c1cc(S(=O)(=O)N2CCN(c3ccccc3)CC2)ccc1Cl | inconclusive: 20 µM [inhibitor, single point]
6 | C=C(C)COc1ccc(-c2ncnc(C(F)(F)F)c2-c2ccc(OC)cc2)c(O)c1 | inactive
7 | Clc1ccccc1OCCCCN1CCNCC1 | inactive
8 | CCCCCCCCOC(=O)c1c(CSC(=N)N)n(C)c2cc(Br)c(OC(C)=O)cc12 | inconclusive: 17.8 µM [inhibitor, single point]
9 | Nc1nc(Nc2ccc(Cl)cc2)nc(NCc2ccco2)c1[N+](=O)[O-] | inconclusive: 35.5 µM [inhibitor, single point]
10 | CN1CC(c2ccccc2Cl)C2(COc3ccccc3C2=O)C12C(=O)Nc1ccccc12 (stereo not given) | inconclusive: 35.5 µM [inhibitor, single point]
11 | Fc1ccc(-c2n[nH]c(=S)n2-c2ccc3c(c2)OCCO3)cc1 | inactive
12 | Cn1c(=O)[nH]c(=O)c2c1nc(SCC(=O)O)n2Cc1ccccc1 | inactive
13 | O=C1CCN(CCc2ccccc2)CCN1[C@H](CSc1ccccc1)Cc1ccccc1 | inconclusive: 35.5 µM [inhibitor, single point] and inconclusive: 15.8 µM [inhibitor, single point]
14 | CC(=O)c1c(C)[nH]c(C(=O)Nc2nc(-c3ccc(-c4ccccc4)cc3)cs2)c1C | inconclusive: 10 µM [inhibitor, partial curve, poor fit]
15 | CCCCC[C@H]1CN(Cc2ccc(OC)cc2)C(=O)[C@@H]1CC(=O)NCc1ccccc1 | inconclusive: 20 µM [inhibitor, single point] and inconclusive: 35.5 µM [inhibitor, single point]
16 | O=C(Nc1ccc(F)cc1Cl)n1ncc2cc(Cl)ccc21 | inconclusive: 25.1 µM [inhibitor, single point]
17 | CCNC(=S)Nc1cc(OCC)c(NC(=O)c2ccco2)cc1OCC | inactive
18 | O=S(=O)(c1ccc2[nH]c3c(c2c1)CCCC3)N1CCCCC1 | inconclusive: 35.5 µM [inhibitor, single point]
19 | O=S(=O)(c1ccc(N2CCC(c3ccc(Cl)cc3)=N2)cc1)N(CCO)CCO | inconclusive: 35.5 µM [inhibitor, single point]
20 | O=C(N/N=C/C=C/c1ccc(Br)cc1)C(O)c1ccccc1 (stereo not given) | inactive
21 | CCC12CN3CC(C)(CN(C1)C3c1c[nH]c3ccccc13)C2=O (stereo not given) | inconclusive: 35.5 µM [inhibitor, single point]
22 | O=C(c1ccco1)N1CCN(c2ncnc3c2[nH]c2ccc(Br)cc23)CC1 | inconclusive: 35.5 µM [inhibitor, single point]
23 | CCn1c(=O)c(C(=O)CN(C)CC(=O)Nc2cccc(F)c2)c(N)n(Cc2ccccc2)c1=O | inactive
24 | CC1=C(C(=O)Nc2ccc(C)cc2C)C(c2ccc(O)cc2)n2nnnc2N1 (stereo not given) | inactive

Row | Structure (SMILES) | Potency
25 | CCn1nc(C)cc1C(=O)Sc1ccc(Cl)cc1Cl | inconclusive: 35.5 µM [inhibitor, single point]
26 | Cc1ccc(N2C(=O)N(CC(=O)NCc3ccccc3Cl)C(=O)C2C)cc1 (stereo not given) | inactive
27 | CCc1ccc(NC(=O)CSC2=Nc3ccccc3C3=NC(CCC(=O)NCCc4ccccc4)C(=O)N23)cc1 (stereo not given) | inconclusive: 7.08 µM [inhibitor, partial curve, poor fit]
28 | O=C(C1CCN(Cc2ccc(F)cc2)CC1)N(CCc1ccccc1)Cc1ccccc1 | inconclusive: 25.1 µM [inhibitor, partial curve, poor fit]
29 | COc1ccc(NC(=O)CN2C(=O)COc3ccc(S(=O)(=O)Nc4ccccc4)cc32)cc1 | inconclusive: 3.16 µM [inhibitor, partial curve, poor fit]
30 | Cn1c(=O)n(C)c2cc([N+](=O)[O-])c(N3CCN(S(=O)(=O)c4ccc(C(C)(C)C)cc4)CC3)cc21 | inconclusive: 10 µM [inhibitor, partial curve]
31 | O=C(NCCCN1CCOCC1)c1cc(-c2ccc(F)cc2)nc2ccccc12 | inactive
32 | CCOc1ccc(C(=O)/C=C/c2ccc(SC)cc2)cc1 | inactive
33 | CC12CCC=CC1C(c1ccoc1)N(Cc1ccccc1)C2=O (stereo not given) | inconclusive: 35.5 µM [inhibitor, single point]
34 | COc1ccc(CNS(=O)(=O)c2ccc3c(c2)N(C(C)=O)CC(C)S3)cc1 (stereo not given) | inactive
35 | CCCc1cc(-c2[nH]ncc2-c2ccc3c(c2)OCCCO3)c(O)cc1O | inconclusive: 28.2 µM [inhibitor, single point]
36 | CC(C)=CCCC1(C)C=Cc2c(ccc3c2[nH]c2cc(O)c(C)cc23)O1 (stereo not given) | inconclusive: 20 µM [inhibitor, single point]
37 | Cn1c(=O)c2cc(NC(=O)NCc3ccc(F)cc3)ccc2n1Cc1cccc(C(F)(F)F)c1 | inactive
38 | COc1ccc(S(=O)(=O)N2CCC(C(=O)N3CCC(C(N)=O)CC3)CC2)cc1Cl | inactive
39 | CC(C)c1nnc(NC(=O)CCS(=O)(=O)c2nc(-c3cccs3)cc(C(F)(F)F)n2)s1 | active: 14.1 µM
40 | COc1ccccc1NC(=O)Cc1nn(C)c(=O)c2ccccc12 | inactive
41 | COc1ccc(OCC(O)CNC(C)c2ccccc2)cc1 (stereo not given) | inactive
42 | CCc1nc(SCC(=O)c2ccc(Cl)s2)c2oc3ccccc3c2n1 | inactive
43 | CCCc1nc2ccc(C)cn2c1Cc1cccc(F)c1 | inconclusive: 22.4 µM [inhibitor, single point]
44 | CCc1nc2ccccc2c(C(=O)OCc2nc3ccccc3c(=O)[nH]2)c1C | inactive
45 | COc1ccc(C(=O)NCCc2sc(-c3ccc(F)cc3)nc2C)cc1OC | inconclusive: 28.2 µM [inhibitor, single point]
46 | CCc1nnc(NC(=O)CCc2ccc(C)o2)s1 | inactive
47 | CCC(C(=O)NC1CCCCC1)n1c(SCc2ccc(F)cc2)nc2ccncc21 (stereo not given) | inconclusive: 35.5 µM [inhibitor, single point]
48 | Cc1ccc(-c2csc(N3CCN(c4ccc5nc(-c6ccncc6)n(CCN6CCCCC6)c5c4)CC3)n2)cc1 | inconclusive: 17.8 µM [inhibitor, partial curve, poor fit]

Row | Structure (SMILES) | Potency
49 | COC(=O)c1cc(S(=O)(=O)N2CCOCC2)c(Cl)cc1N1CCOCC1 | inconclusive: 6.31 µM [inhibitor, single point]
50 | COc1ccc(-c2nonc2NC(=O)c2ccco2)cc1OC | inactive
51 | O=C1CCCC(O)=C1C=Nc1ccc(O)cc1 | inactive
52 | O=C1NC(=S)S/C1=C\c1cc(Cl)ccc1Cl | inconclusive: 7.94 µM [inhibitor, partial curve, poor fit]
53 | COc1ccc(C(=O)NCC(c2ccc(N(C)C)cc2)N2CCCC2)c(OC)c1 (stereo not given) | inconclusive: 35.5 µM [inhibitor, single point]
54 | O=C(CN1C(=O)NC2(CCCCCCC2)C1=O)Nc1cccc(Br)c1 | inconclusive: 3.55 µM [inhibitor, full curve]
55 | COc1cc2c(cc1O)CCN(C(=O)c1ccco1)C2C (stereo not given) | inactive
56 | COc1cc2nc(CN3CCN(S(=O)(=O)c4ccccc4[N+](=O)[O-])CC3)[nH]c(=O)c2cc1OC | inconclusive: 12.6 µM [inhibitor, single point]
57 | Cc1c(NC(=O)c2ccc(N3CCCC3)c([N+](=O)[O-])c2)cccc1-c1nc2ccccc2s1 | inconclusive: 3.55 µM [inhibitor, partial curve, poor fit]
58 | NC(=O)c1sc2nc(-c3ccccc3)c3c(c2c1N)CCCC3 | inactive
59 | C=CC[C@@H](CC(=O)NCCO)C(=O)N[C@@H](COC(=O)[C@@H](CC=C)Cc1ccc(F)cc1)Cc1c[nH]c2ccccc12 | inconclusive: 20 µM [inhibitor, single point]
60 | S=C(N=Nc1ccccc1)NNc1ccccc1 | inactive
61 | O=C(CCl)NC(=O)NC12CC3CC(CC(C3)C1)C2 | inconclusive: 25.1 µM [inhibitor, single point]
62 | CCn1c(C)nc2cc(S(=O)(=O)C(F)F)ccc21 | inactive
63 | O=c1[nH]c(Cc2ccccn2)nc2scc(-c3ccccc3Cl)c12 | inactive
64 | CCOC(=O)C1CCN(Cc2cnc(Oc3ccc(OC)cc3)s2)CC1 | inactive
65 | Cc1cccc(NCc2nc3ccccc3n2CCOc2ccccc2C)c1 | active: 11.2 µM
66 | CCOC(=O)/C(=C\c1ccc([N+](=O)[O-])o1)NC(=O)c1ccccc1 | inconclusive: 22.4 µM [inhibitor, single point]
67 | CCN(CC)c1ccc(NC(=O)c2ccc3c(c2)OCO3)cc1 | inactive
68 | CC(C)c1ccc(-c2nnc3n(CCc4ccccc4)c(=O)c4ccccc4n23)cc1 | inactive
69 | CCOC(=O)C1CCN(C(=O)CCC(=O)NNc2nc3ccccc3c3nc(C)nn23)CC1 | inactive
70 | Cc1cccc(Nc2nc(NCCCN3CCOCC3)nc(N)c2[N+](=O)[O-])c1 | inconclusive: 20 µM [inhibitor, single point]
